The supplement of paper PMC3334620
Whole data set: some 33,000 sequences, median “E-score (-0.5 to 0.5)” near -0.013, cut for the highest 2% near 0.3. The list shows a part of the results.

Target: T1, Msn1 (UniProt P22148)
T1 sequence: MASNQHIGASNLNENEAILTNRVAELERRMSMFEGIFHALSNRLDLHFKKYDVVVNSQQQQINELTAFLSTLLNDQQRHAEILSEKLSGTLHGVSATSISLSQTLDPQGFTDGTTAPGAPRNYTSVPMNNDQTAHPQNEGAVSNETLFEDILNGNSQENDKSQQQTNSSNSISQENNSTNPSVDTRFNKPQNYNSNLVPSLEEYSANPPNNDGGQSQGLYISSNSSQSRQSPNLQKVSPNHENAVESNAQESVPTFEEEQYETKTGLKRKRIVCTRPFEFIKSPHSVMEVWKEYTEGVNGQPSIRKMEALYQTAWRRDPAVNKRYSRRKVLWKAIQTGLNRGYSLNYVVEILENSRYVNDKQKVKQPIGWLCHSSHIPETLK
Assay: PBM E-score (8-mer binding enrichment) (E-score (-0.5 to 0.5)); higher = stronger / more preferred TF binding; most listed sequences are background and not binding sites
Settings: protein concentration: 200 nM; construct: GST-full length
How it was run: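 Bound GST-tagged yeast transcription factors, applied at about 100-200 nM to double-stranded universal all-10-mer Agilent arrays, were detected with fluorescent anti-GST. Scans were normalised with masliner. A modified Wilcoxon-Mann-Whitney statistic, the E-score, was assigned to each ungapped eight-base word pooled with its reverse complement by the Universal PBM Analysis Suite.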

Point of comparison: CAACATAC, “PBM E-score” value 0.0974. Against it:
- CTAAGTAG — lower, 0.0501
- GAGGTCGC — lower, -0.186
- CGAGACTC — lower, -0.00493
- GACCGGGC — lower, -0.0657
- TAGTTTAA — higher, 0.178
- AACTCATT — lower, -0.14
- CATGCATG — lower, 0.0791
- AGTGGCCA — lower, -0.106
- ACCGCCGT — lower, -0.0448
- TAACCCTA — lower, -0.0127
- GCGTAGCA — lower, -0.0678
- ATATTCAA — higher, 0.169
- GGACAAGA — higher, 0.458
- ACCGGATC — lower, -0.0837
- GTCCCCCA — lower, -0.119
- CCTAAGAA — higher, 0.21
- GCAATGCC — lower, -0.0403
- CCACGTAA — lower, -0.0608
- AATTAGAT — higher, 0.192
- GCATCGCA — lower, -0.322
- GCCGAAAC — lower, 0.0415
- AACGATAC — lower, -0.00372
- GATAGTCC — higher, 0.122
- CCACTCCG — lower, -0.144
- CTTAGTCA — lower, 0.0007
- AAGCTACG — lower, -0.14
- GTATTGGA — lower, 0.00477
- AAGGTTGG — lower, -0.102
- GATTGAGA — lower, 0.025
- CAGTAATC — lower, -0.0275
- AGACAAAG — higher, 0.364
- AACTTTAT — lower, 0.0939
- TAATAACA — higher, 0.216
- GCCATGTA — lower, -0.012
- ACGATCCA — lower, -0.0547
- CCTCTAAC — lower, 0.0154
- GGCTAAAA — lower, 0.0789
- ACTGACAT — higher, 0.249
- ATAGATCC — lower, -0.0574
- AGACGAGA — lower, -0.0568
- CGAATGAG — lower, -0.0247
- ATTTTACG — higher, 0.199
- GTTCATAA — lower, -0.0351
- AATCTACC — lower, 0.0273
- GTCTGTTA — higher, 0.161
- GACACCTA — higher, 0.111
- CCATATAC — higher, 0.153
- CAGCAGTC — lower, -0.149
- AGGGCGGC — lower, -0.196
- ACACTTCT — lower, 0.0937
- ATTGATAG — higher, 0.156
- CTATGAAA — lower, 0.0195
- ATATAACA — higher, 0.197
- ACTGTCCG — higher, 0.183
- TACAACAA — higher, 0.203
- TGCGTACA — higher, 0.102
- CGCTGAGA — lower, 0.0389
- AACCTTAC — higher, 0.106
- CTGTGGTA — lower, 0.0657
- GCCAGAAA — lower, 0.0601
- ACTTTGGA — higher, 0.138
- CTGGGAAC — lower, -0.0254
- GCATCCAC — lower, -0.0364
- GGTTTAAC — lower, 0.00524
- ACTCTCTC — lower, -0.185
- ATGCGTTG — lower, -0.0136
- AGTATACA — higher, 0.169
- ACTGTTTG — lower, 0.0487
- GACTTAAA — higher, 0.145
- CAGAGCAG — lower, -0.113
- ACAAGAAT — higher, 0.223
- AATTGTAC — higher, 0.365
- ACGGCCCG — lower, -0.181
- GAGTGCGA — lower, 0.00502
- CTTAAGCC — lower, -0.0426
- ACTTCACA — lower, 0.0485
- CCCAACGC — lower, 0.0471
- CCAACTAC — lower, -0.0374
- TATTAATA — lower, -0.134
- CCATCGAG — lower, 0.0161
- CCGCTCAG — lower, -0.268
- ACGGACAC — higher, 0.344
- CTCCTCGA — lower, -0.186
- CTTCGCGC — lower, 0.0725
- CAACACGG — lower, -0.13
- CAGCCTAA — lower, -0.0854
- AAGGGACT — lower, 0.0205
- GACACAGA — higher, 0.204
- AAGATTCA — higher, 0.14
- AAGACTAT — lower, -0.0507
- AATGGTTA — lower, -0.0777
- CCACGCCG — lower, -0.112
- AAGGCAGA — lower, -0.14
- CTCTGGTC — lower, -0.201
- GTCTCCAC — lower, -0.115
- CCCTATAA — lower, -0.134
- ACGTACTC — lower, 0.00233
- CGATCCTC — lower, -0.0924
- TCCATAAA — lower, 0.00441
- AGATAATC — lower, 0.094
- GATCCAGA — lower, -0.00709
- CAGCGATA — lower, -0.125
- CAGGTTCA — lower, -0.149
- CTGGACTA — lower, -0.128
- CGTGTGAA — higher, 0.125
- GCGATCTA — lower, 0.0372
- CCAAGGAG — lower, -0.129
- ATCGAGAC — lower, 0.031
- AGCCATAT — lower, 0.00713
